# From article PMC12136788
# The list shows a part of the results.
# B1: 36956110_36956230_3162_CDS_ENSMUSG00000029190_ENSMUST00000132383|mouse|control|control (ssRNA)
# RNA: GGGAGUUCUACAGUCCGACGAUCAUCCAGUGAUGUCUGAGCACUCUUCUCCAUUCCAGAUUUUUUUAACCUGGGCAGGAACUUCCCAGACUCAAGCUCUAACUUUCCAUAGUAGUGACCUUCUUUCUCUGCAUCUUCCUCUAACAACAGAGGAUUGAGCAUCA
# B2: chr13:90244479:90244480:+_ENSMUSG00000012422_ENSMUST00000161568|mus_mus|FALSE|FALSE (ssRNA)
# RNA: GGGAGUUCUACAGUCCGACGAUCUCUGGUUAGCAAUCCAAAGGGUUUAAAUAUGAAUGCAAUCCAUAAGAACAGUAACAACAACAAAAAUAGAACAAGUUUUUUUCUCAAUAAAAAUAGGCCAGUCGCUAGAAGGUACCAUUCCAACAGAGGAUUGAGCAUCA
# B3: chr17:65337135:65337136:-_ENSG00000197170_ENST00000584008|hu_mus|FALSE|FALSE (ssRNA)
# RNA: GGGAGUUCUACAGUCCGACGAUCCUGGAAGUUGAUGACUCCAGCCAACCUGUCUACUUUAGCAAAGAUGGUCUUGUUAACGACUAGAUUCGAGAGGAAAGCCUCUGACUCAUCCACAGAGAGAUCCAGAAGUUGUGCCAUCCUCAACAGAGGAUUGAGCAUCA
# B4: chr14:21542388:21542389:+_ENSMUSG00000021819_ENSMUST00000022358|mus_mus|FALSE|FALSE (ssRNA)
# RNA: GGGAGUUCUACAGUCCGACGAUCGAAGGCGCUGCGAGCGCUGCGGAUUGCAUUCACAAAGUCGUCGUAGUCGGCAGGAGUCAGGUGAAUUAAGCGGUGAUGGAUGUACUGCAUGUAUGCCUGCUGACAGCGCUGCACCAGUUGCAACAGAGGAUUGAGCAUCA
# B5: chr22:19452774:19452775:-_ENSG00000070010_ENST00000399523|hu_hu|hu_hu_hu_mus_False|1_28 (ssRNA)
# RNA: GGGAGUUCUACAGUCCGACGAUCCUUCUCAUUGUAGUUGAUAGCAAUCACAUCUCCAGUCGUCAGACAGGCGAAGUUUCUCAAUGCAUUUUCUAAUACCGCUUUAGGGUUGGUGAUAUCCAGGAAGUCUGGGCUCUGAGGUUGCAACAGAGGAUUGAGCAUCA
# B6: chr12:118471567:118471568:-_ENSG00000176871_ENST00000315436|hu_hu|FALSE|FALSE (ssRNA)
# RNA: GGGAGUUCUACAGUCCGACGAUCGCACUUGGCCAACAUCGAAGCAACUCUGACCACAGCAGGAGAGAACUUGAACCAAUGCUACCACUGCAUCAGAAACACAAGGAUAGGUACUAGGCAGAAGCCAUCGUUCCCAGCGGAGGGCAACAGAGGAUUGAGCAUCA
# B7: chr3:19992450:19992451:+_ENSG00000144566_ENST00000273047|hu_hu|FALSE|FALSE (ssRNA)
# RNA: GGGAGUUCUACAGUCCGACGAUCUUUCACAAAACGAAGCACUAGGCUUGAUUUGCCAACAGCGGACUCUCCCAGAAGUACUAGUUUGAACUGGCAUAUUUUAUUUCCCGUAUUUGGCCCGUUGGGUCUUGUUGCGCCUCGACUCAACAGAGGAUUGAGCAUCA
# B8: chr7:135333399:135333400:+_ENSG00000155561_ENST00000285968|hu_hu|FALSE|FALSE (ssRNA)
# RNA: GGGAGUUCUACAGUCCGACGAUCUGUCCAUAUACAAAGAAAGAAAUAGCAAAAUAUUUUUGGUCAUAAUUUAGAAAGAAACUAAUCUAUAAAAUGGAGACAAUUCUCCCCAAUUCAUCUCUCUCAUAGAAGAGCAUAAGCACGCAACAGAGGAUUGAGCAUCA
# B9: chr5:177632888:177632889:+_ENSG00000197451_ENST00000358344|hu_hu|FALSE|FALSE (ssRNA)
# RNA: GGGAGUUCUACAGUCCGACGAUCUAUUGUACAGUCAACGACCUCUCCAAAUUUAGUAAAAUAGUCUUUUAAAUCUUUUUUGCUAGUAUCCCAGCUCAGGCCACCAACGAACAUUUUUCCCGCGUCCUCCUCGUUCUUGCUGGCCAACAGAGGAUUGAGCAUCA
# B10: chr8:26933331:26933332:-_ENSMUSG00000031575_ENSMUST00000166078|mus_mus|FALSE|FALSE (ssRNA)
# RNA: GGGAGUUCUACAGUCCGACGAUCCUGGUGGAACUUGGUGCCUUUCUUGCUCCGCCAAGAAUAGCUAAACUUAUCAUAGCCUAAGGGAGCUUGGAGGUUACCUAAGGGCUGGGACCAGCCCAGCCUGGCAGCAGUGUCUGGGGGCAACAGAGGAUUGAGCAUCA
# B11: chr10:115881139:115881140:-_ENSG00000165813_ENST00000369287|hu_hu|motif|central (ssRNA)
# RNA: GGGAGUUCUACAGUCCGACGAUCAUAAAAAUAUUUUCACCAGGGUAGCAUAUAUAACAACAUUUACAUUAUUAAGGAUUCGGUUUUUUUCUUUUACUGAUAAAUCUUGGUUUAAAUUUGCAUGUAACAAUUUUUAGAAAAUAACAACAGAGGAUUGAGCAUCA
# B12: 15478512_15479670_848_CDS_ENSG00000164985_ENST00000380738|human|control|control (ssRNA)
# RNA: GGGAGUUCUACAGUCCGACGAUCGGGUCUGCCUCUUGGUUUUGGAAUCUUGACUUCUGUAGCUGCAGGUCGUCCUCUUUUAGGACUCACUUUUAGAUUAACAGAUGCUGUUGCUGUUGUCACUACUCCUGCCUCCUCAGUUUCCAACAGAGGAUUGAGCAUCA
# B13: chr4:120564322:120564323:+_ENSMUSG00000032890_ENSMUST00000071093|mus_mus|FALSE|FALSE (ssRNA)
# RNA: GGGAGUUCUACAGUCCGACGAUCAAGUGUCCAUACGAUGCUCCUUUGGGUUCUUUCCAGCAAGAUACAGAGAUGUGGACUAUAUAGUCCAUGUGAUCACCAGGACUGAUUGUACACAGACAAAUGGACAAAUAUGUGGACACACAACAGAGGAUUGAGCAUCA
# B14: chr2:39006174:39006175:+_ENSG00000152147_ENST00000409566|hu_hu|FALSE|FALSE (ssRNA)
# RNA: GGGAGUUCUACAGUCCGACGAUCUCAUUCUUCUCACUGGCUGUCACUCGGACCUCUUUGUAAAUGUAAUCUUGCCAUUCUAAGGGGCCUUUCUUCAUCCAUUCACUCAUGAUUGCCACCUGGCUAAAUCAGUUAAAAAACUCCCAACAGAGGAUUGAGCAUCA
# Biological target: T1, UNK ZnF1-3 (human, UniProt Q9C0B0 31-174)
# T1 sequence: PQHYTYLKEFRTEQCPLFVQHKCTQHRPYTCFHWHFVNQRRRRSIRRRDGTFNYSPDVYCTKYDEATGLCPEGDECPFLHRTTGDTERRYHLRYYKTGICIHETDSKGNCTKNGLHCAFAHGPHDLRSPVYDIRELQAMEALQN
# Test: nsRBNS (natural sequence RNA bind-n-seq); RBNS binding buffer (assumed for nsRBNS): 25 mM Tris pH 7.5, 150 mM KCl, 3 mM MgCl2, 0.01% Triton X-100, 500 ug/ml BSA, 20 U/ml SUPERase-In, 4 C; UNK is unkempt and MSI1 is Musashi-1; names of the RNAs are library labels; protein concentration not given here; high values mean tight binding
row,Binder,binding signal
1,B1,0.531 enrichment R
2,B2,1.4 enrichment R
3,B3,0.736 enrichment R
4,B4,1.14 enrichment R
5,B5,0.728 enrichment R
6,B6,1.48 enrichment R
7,B7,0.685 enrichment R
8,B8,1.9 enrichment R
9,B9,1.66 enrichment R
10,B10,0.823 enrichment R
11,B11,2.85 enrichment R
12,B12,0.365 enrichment R
13,B13,1.69 enrichment R
14,B14,0.645 enrichment R
